± gives the standard deviation of the averaged measurements. The list shows a part of the results.
tested on: PfAP2-I AP2 domain 3 (GST-tagged); experiment: gcPBM binding intensity (ln(normalized median fluorescence intensity)); higher = stronger DNA binding
Procedure, shortened: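 Alexa488 anti-GST antibody, scanned at 488 nm, detected GST-tagged P. falciparum DNA-binding domains that had been expressed in E. coli and incubated for 1 h on an Agilent 4 × 180k array. The array carried primer-extended double-stranded 36-bp intergenic genomic probes and negative controls. Binding intensity is the highest Masliner-normalised natural-log median intensity across replicate spots of either orientation of each probe.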

Sequence	gcPBM binding intensity (ln)
ATATATTTTAATTGATGTACTTTTTTATGTTAATGA [XGTACX_site4316]	8.005 ± 0.035
AATGTGTACGCACGCACACACAAAAAAATATATATA [CACACA_site2913]	9.05 ± 0.3
ATCTATATCTATAATACACACATAAATGGATATATA [CACACA_site6284]	7.81 ± 0.44
CAAGCCCTTCTGCTTACACACAGTAATTATTGTGCA [CACACA_site7399]	7.73 ± 0.79
TAAATATATTTATAAGCACACACTAATAAACCAACA [CACACA_site8022]	8.49 ± 0.33
TTATGCAATTTGTATTGTACATTCATGATATTAATA [XGTACX_site5070]	7.6 ± 0.51
TAATAAATCAATAAATGTACATATATGTATAATTTC [XGTACX_site980]	7.75 ± 0.43
AATTATAAAAAAAAAAAAAAAAAAAAAAACTAAATG [CACACA_negctrl_site1379]	7.51 ± 0.48
ATAATGTATTTATATATATATATATATTTTAATAAA [CACACA_negctrl_site460]	7.57 ± 0.42
TTTAAAAATATATTCACACAGAAATAGTAAAAGTTA [CACACA_site4587]	7.67 ± 0.68
TATATATAGAAACACACACACACACCCAAGCGTAGC [CACACA_site63]	8.06 ± 0.37
ATTATAACTAAATAAATGATATATAATATTTTATTT [XGTACX_negctrl_site234]	7.39 ± 0.28
ATTTATTAATTACCATGTATAAAAAATTATATAATA [CACACA_negctrl_site581]	7.46 ± 0.52
GTCGTATAATTTTCAGTGCAATATTTGAATAAATGG [GTGCAC_site9404]	10.3 ± 0.23
AGCAACTCAATATATATAAGAATTGTAATATAATAT [GTGCAC_negctrl_site429]	7.5 ± 0.49
ATACAATACAAAAACACACACAAAAAAAGAAAAGGA [CACACA_site2156]	7.98 ± 0.82
ATATATTTATATATTTGTACATATAATATCTTCTTT [XGTACX_site8504]	7.49 ± 0.49
GATTTATACAAATATGTACACACTAAATATATATTA [CACACA_site455]	8.19 ± 0.28
TTTATTTTATTTTCATGTACAAAAGGGGAATAATAA [XGTACX_site2704]	8.28 ± 0.3
ATATGTATGTATTTATTATTGTGCATTGTATTTATA [CACACA_negctrl_site664]	9.36 ± 0.38
TATTTATCTTTACGCACACACTTGCATGTACAAAAG [CACACA_site4753]	9.47 ± 0.042
AATACCCATATCTTCACACATACATAATAAATTATA [CACACA_site5367]	7.92 ± 0.73

Sequence	gcPBM binding intensity (ln)
TTTATTTATGTGTGGGTGCATATACGTATGATGTAT	11 ± 0.72
TTTGAATATTCATATGCACACAAATTAATATACATA [CACACA_site8040]	8.63 ± 0.099
GTATAATATTTTAATGCACACACACTAATAAAAAAA [CACACA_site8939]	11.1 ± 0.76
TTTGGATAAAAAATATGTACACACATATAGATATCT [XGTACX_site5660]	7.71 ± 0.54
TTGACAGGAACGTTGGTGCACGTACTGTTTTTCTTT [GTGCAC_site9389]	10.5 ± 0.12
AAGTATAAATAAAGGCGTACACATGTAAATTATATT [XGTACX_site126]	8.29 ± 0.35
AAAATAATTCATGTTGGTAATAAGACTCGAGGTGAA [CACACA_negctrl_site1054]	7.89 ± 0.56
TAATAGATGTTATGAAGTACTAAATATTAAATATAA [XGTACX_site5717]	7.81 ± 0.45
TTTATTTTAAATGGGTGTACTCATTCCTTATGGAAG [XGTACX_site1397]	7.915 ± 0.078
TATTATAATATATTTGTGCACATAATATCTCCGCTA [GTGCAC_site9799]	10.91 ± 0.049
AGTAGTCTGGAGAAAAGTACATAGTATCTGATAACC [XGTACX_site2028]	7.95 ± 0.63
TGCTTATATATAAATTGTACTGAAAGAATAAAATAA [XGTACX_site4025]	7.79 ± 0.5
AAAAAGATAAAATATACATGCATATATAATATACAT [TGCATGCA_site488]	7.49 ± 0.51
AAAAAAAAAAAATACACACACATATTTATTTATATA [CACACA_site7114]	7.69 ± 0.2
AAAAAAGGTAAAAAAAGTACAAAAAAAAAATTAAAA [XGTACX_site6993]	7.78 ± 0.43
CTATATGTTAAATTCTCACACATTATTACAATTTAA [CACACA_site5979]	7.88 ± 0.49
ACGTATTTTTAAATATATGAATTATGTAACTTGTGA [CACACA_negctrl_site1446]	7.6 ± 0.45
GAATATGTGATATTTTGTACATAAAAATAATATATA [XGTACX_site6398]	7.65 ± 0.33
TATACTATTTAAATGTGTACTAAAAGAATATATTAT [XGTACX_site5238]	8.1 ± 0.12
CATATGTATATGACTACACACAAGGGTGTACCTATA [CACACA_site6670]	7.62 ± 0.4
TTAAAAATAAATTCATGTACATAATATATATATATA [XGTACX_site7908]	9.1 ± 0.21
TATATACAACGTTAAGCACACACAAAAAAAATTTAA [CACACA_site9013]	8.59 ± 0.13

Sequence	gcPBM binding intensity (ln)
AAAACATAAATACATACACACATAATATAGATTAAT [CACACA_site6205]	7.62 ± 0.59
TTGCATTTATTATACACACACAAAAAAATATTTATA [CACACA_site6252]	7.96 ± 0.31
TGTTCATTTTTAAAATGTACATATATGTTGTTCCAT [XGTACX_site8444]	7.67 ± 0.64
ATTTCTCAATCTTAATGTACAAAAAAAAGGAAAAAG [XGTACX_site1210]	7.82 ± 0.57
AGCATATTATCATATTGTACATATTATAATATATAT [XGTACX_site3907]	7.87 ± 0.38
ATATGTTTTGTTTACGTGCACTGCTTTGTTTATATA [GTGCAC_site9622]	10.8 ± 0.11
AGCAAATCAGATAGTAGTACATTTAAATTAGACTTT [XGTACX_site4172]	7.67 ± 0.39
TAAAAATTTTAATAAACACACAATGAGATATTGAAT [CACACA_site5704]	7.58 ± 0.61
CAAAATAAAAATAACACACACATTTATATATATACA [CACACA_site1190]	7.58 ± 0.57
TTTTTAATTATCTTTTCCCATGGTTTCTCCGTTTTT [XGTACX_negctrl_site39]	7.74 ± 1.1
TTTTTAAAACATCACTGTACCCGTTATGGTGAACAT [XGTACX_site3483]	7.84 ± 0.28
TAAAACATAAGAGACACACACACATATATATATATA [CACACA_site3643]	9.59 ± 0.48
ATATTCTTTTTATGTGGTACTAATTTTTTTTTTTTA [XGTACX_site3791]	7.99 ± 0.4
TTTTTAAATAATTGAAGTACACATTTCTCTAAGTTG [XGTACX_site2846]	7.62 ± 0.4
AGTAAAAGAAAGCACACACACATGTATATAGGTATG [CACACA_site7759]	8.03 ± 0.49
CATGTATTTTATATTACACACTAATATTATAGATAT [CACACA_site6819]	7.8 ± 0.37
TTTTTTTTTTTGTTTAAACACACGAGCTTTCTTCTT [CACACA_site4085]	8.26 ± 1
AAACATATAAACATATGTACATATAAACATATATAC [XGTACX_site5026]	7.67 ± 0.41
ATGTAAATATATATATGTACTAATTAGTAGTTTACG [XGTACX_site6271]	8.29 ± 0.36
TTACATAATTTCTGCTGTACCAATTTTGAGAAGTTG [XGTACX_site4023]	7.86 ± 0.53
AAAAGGAATATAATCATTCAAAAATATAATATATAT [GTGCAC_negctrl_site551]	7.73 ± 0.52
ATCTTAACTCTATGCACACATAAAAGTATATAAATA [CACACA_site2256]	9.38 ± 0.18

Sequence	gcPBM binding intensity (ln)
TTTTATAAATTATAATTCTATTATCTGTTCTTTTTA [TGCATGCA_negctrl_site487]	7.58 ± 0.63
CATACATACATACATACACACATACAGATATATATA [CACACA_site4890]	8.88 ± 0.7
TCCTTATTACTTTTTTAAGTCGTAATGAAAGAAAAA [CACACA_negctrl_site1497]	7.58 ± 0.64
ATCATCCAAGATCTTACACACATATTAAATAAATAA [CACACA_site1473]	7.93 ± 0.45
TTTTATTTTTTTAAATGTACACATATTAATGTAAGG [XGTACX_site319]	7.92 ± 0.3
ATCATGTTATATACATGTACATATATATATATATAA [XGTACX_site609]	8 ± 0.42
AACACAGATAAATTAACACACACACCCATATATATA [CACACA_site9310]	8.48 ± 0.69
CACATATAGTTATATGCACACATCTTACACATCTAT [CACACA_site5937]	9.49 ± 0.21
CAATTTGGGGTGTACACACACCTTATTTAAATTAAA [CACACA_site6663]	8.02 ± 0.36
TTGAACTCTCTTACGCGTACGTGTTATTATGAAAAT [XGTACX_site6265]	7.98 ± 0.75
ATGAAATATCGGAACGCACACATAAATATATTTATA [CACACA_site2670]	8.575 ± 0.078
TAGCTTATTAATATCATACACACATAGATATATTTA [CACACA_site3105]	7.5 ± 0.54
TATATATATATATGTGCATGTAATGATTCAGCATCT [TGCATGCA_site803]	9.45 ± 0.16
TTTTTTTTTTTAAATTGTACTTATTTTATATTATAT [XGTACX_site1077]	7.95 ± 0.59
ATATCTTATTTTCCTTGTACTTATTTCATAATTACA [XGTACX_site3894]	8.09 ± 0.53
TATTAAATATTGTAATGTACATATATAATATAATAT [XGTACX_site1809]	7.82 ± 0.39
AATGTCATGATACATACACACACATACACATACACA [CACACA_site8665]	8.04 ± 0.57
TAAATATGTATAAATTGTACAAAATATATGAATAGT [XGTACX_site5659]	8.16 ± 0.49
AATTTCCCATATTACACACATACTATGATATATAAA [CACACA_site3834]	8.1 ± 0.57
CAATAAACCATTTTTTGTACATAAAAATAGGTATTG [XGTACX_site1892]	7.58 ± 0.5
TATTATATTTATATTTGTACTTAAAATATTATACAC [XGTACX_site2881]	7.83 ± 0.42
AGTATACGCAAACACACACACACAAAAAAAAAAAAA [CACACA_site426]	7.96 ± 0.58
